Measurements reported in the supplement of paper PMC11417369.
This is one part of the list.

test system: PF3D7_0420300 AP2 domain 1 (GST-tagged); experiment: gcPBM binding intensity (ln(normalized median fluorescence intensity)); higher = stronger DNA binding
Procedure, shortened: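 DNA-binding domains from P. falciparum, fused to GST and produced in E. coli, were put on an Agilent 4 × 180k double-stranded probe array for 1 h in 1× PBS holding 1% milk, 0.2 mg/ml BSA, 0.5% salmon testes DNA and 0.03% Triton X-100. Probes were primer-extended, 36 bp long and drawn from intergenic genomic regions, with negative controls included. After Alexa488 anti-GST antibody detection and a 488 nm scan, binding intensity was set as the highest Masliner-normalised natural-log median intensity across replicate spots of either probe orientation.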

Sequence	gcPBM binding intensity (ln)
ATATAATATATGTTATGTACATAGTTTTTATTGTTC [XGTACX_site7438]	9.34
AATATATAATCAGATGAATTTTTTTTTTTTTTTTCA [CACACA_negctrl_site534]	8.92
ATATAAATATGAAAAAGTACAAGCCATCAAGAAATC [XGTACX_site8140]	9.78
AATTTTTTATTCTTTGCATGTCATCATATATAATAT [TGCATGCA_site549]	9.45
ATATAATGTTAGGGTAGAGGAAGTAACTAATATAAA [CACACA_negctrl_site1153]	9.44
TATAAATATTATAATTGTACATATTATAAAAATTTT [XGTACX_site2719]	9.05
ACAAATAAAAAAATTACACACATATAAAATATAGAT [CACACA_site6756]	9.82
TATGAGAACAAACATTGTACAATAAAAAGTAGATAT [XGTACX_site920]	9.71
AATACATGAACTTAAAGTACTAAAAAAAAAATAATA [XGTACX_site1956]	9.27
AGGAAAATAATTAAAGCATGCTCATTATGAAATATA [TGCATGCA_site855]	9.19
TCTTACACTAATAAATGTACATACAAAAAATCTATT [XGTACX_site1379]	9.09
AATTTGAATATTTGATGTACAAAGTTTTTTAATGTT [XGTACX_site3249]	9.17
TACCCACTAAAATACACACACACACCCACATATATA [CACACA_site6141]	10.2
GTACCAACAGCACTACTTCTCGCCATTTTCTTGTAG [XGTACX_negctrl_site97]	9.66
GAGAGGATAGTTCACAGTACCCAGTAACTCTACGGA [XGTACX_site4876]	9.17
ATAAATATAACATATTGTACCCTTAAAAAGGAACAA [XGTACX_site352]	9
AAATGTATAATTTTTTAATACACTTATTTAAAATAA [CACACA_negctrl_site797]	8.81
CTCAAATAACTTTTTACACACATTATTTGAAATAAG [CACACA_site6722]	9.41
ATATGAATGATCGTACGTACTTACATATTTATAAAG [XGTACX_site8041]	9.19
CAGAATACATACATTACACACAAATTTAAGTATATA [CACACA_site1781]	9.71
AAGTTCAAAATAAATGGTACAGAAGTATATATATCA [XGTACX_site174]	9.46
TAAAAAAAGAGATATTGTACACAAAAAAATTTTACT [XGTACX_site1342]	9.38

Sequence	gcPBM binding intensity (ln)
TAGAAAAAAAAATACATACACACAATATATTTATTT [CACACA_site3123]	9.63
TATATATTTGTGAAAATATTAAAATAAATAAATAAA [CACACA_negctrl_site295]	8.99
AAAATCTAGGTATTTATACACACTAATATAATATAC [CACACA_site8108]	9.33
CATATAAGACAAAAGGTGCAATTTTAATGCTTTTAT [GTGCAC_site9432]	9.31
AACCCTTTTGATTTTTCTTTTTTTTTTTTTTTAAAT [CACACA_negctrl_site1667]	9.28
ACAGTTTGTCTGAGTAGTACATAAATACTTGAAAGG [XGTACX_site7792]	9.07
AGAAGGATATTATGAAGTACACATATTGTATATGGT [XGTACX_site7503]	9.3
TAGTAAAATGGAACACGTACATATATCTATGTATAA [XGTACX_site6103]	9.38
CCATATATAATGACATGTACTCAAAAAAAAAAAAAA [XGTACX_site685]	8.94
TTTCTCTTTTTTTGGGGTACAACCAATCCTATAATA [XGTACX_site297]	9.02
ATACATATATATATATGTACATATATTTATATTTAT [XGTACX_site3155]	9.21
TTTTTAAAAAAAAATAGAGAGTCAAAGTATGTGGCG [CACACA_negctrl_site194]	9.32
TTTCAAGGATTTAATTTATGGAAACCTTCTTCATTT [GTGCAC_negctrl_site504]	8.89
TAATTCAAACGTGTATGTATATTACTCGAAGAAATA [CACACA_negctrl_site1779]	9.03
GGACGTATTAAAAGGCGTACACTAAATATTTTATGT [XGTACX_site146]	9.19
TAATATTTATATAATTGTACTTTGTTTGTAAATCCA [XGTACX_site7292]	9.1
ATTATAATTTTGTAAAGTACATATTATTATATATTA [XGTACX_site7191]	8.98
AAGATAATTACGCACACACACACACGCCCACAACTA [CACACA_site7255]	10.2
TATTTATATAATCCTATAATATTACTACTATCTTTA [GTGCAC_negctrl_site342]	9.19
AAGGTAAAATATAAGTGTACTTTTTCTTAATCTTCG [XGTACX_site514]	9.16
ATATATAATATAATATGTACATATAATCAATCCTGT [XGTACX_site8694]	9.42
ATTTAGTATTCGAAACGTACACATATATATATATAT [XGTACX_site3910]	9.33

Sequence	gcPBM binding intensity (ln)
ATATTTTTTTTCTTCACACACATGAGTTATAAATAA [CACACA_site7498]	9.59
AATGAAACAATACCCAGTAAAAAAAAAAAATAAATA [TGCATGCA_negctrl_site205]	9.65
TGTAATCTGGAGAAGAGTACACAGTATCTGGTAGCT [XGTACX_site4935]	9.08
ATATCTATAATAAACACACAAATAGATATAACATAT [CACACA_site7702]	9.85
AAAAAAAAATTAAAAACACACATATATATATATATA [CACACA_site1580]	9.23
TATATATATATATATGTGCACATTTATTGCCTTTGC	9.18
TAAGTATATTTCTGCACACAAAAAAAAAAACCAAAA [CACACA_site4056]	9.56
AAAATTTAATATGAATGTACATAAAAAAAAAAAAAA [XGTACX_site6719]	9.11
ATACACAAATGCATACGTACATATATATATATATAT [XGTACX_site3504]	9.35
CATATAAGAATCTTCTGTACTTATAAGAAAAGACAT [XGTACX_site8135]	9.02
ATGTAATATGTTCATGCATGTAAAATTACATTTAGA [TGCATGCA_site852]	9.12
AAAAAAAAAAAAACAACACACAATGTTTTATTTTAC [CACACA_site1613]	9.26
TAAAACAAAATAACATGTACAAAAAAAAAAAAAAAA [XGTACX_site2915]	8.92
GTACATATAAATATTACACACATTTTCATTTTTAAC [CACACA_site1986]	9.56
AAATCGAACAAATTATGTACTAAAAAAAAAATTTAT [XGTACX_site6399]	9.07
ATCTTTCGAACATGTACACACAGAAAAAAAAAAAAA [CACACA_site5393]	9.44
TTATATGCATCCAAAAAGGAATGTTTTTAGAGAATC [CACACA_negctrl_site1062]	8.88
GTGTAGGCAAAAAGTTGTACGCCTAAAATCTATATA [XGTACX_site8912]	9.07
TAAAAAGTATATGGTCGTACACTTTTGATTAATACA [XGTACX_site7804]	9.18
TGTATAGGTACAATAATTATAGAGTAATTGACATTA [GTGCAC_negctrl_site183]	9.1
ACTCTCTTATATTAAACACACATATATATATGTATA [CACACA_site2703]	9.53
TCAAACAAAAAAGAAACACACACTAATTAAATTTTC [CACACA_site1101]	9.69

Sequence	gcPBM binding intensity (ln)
AATAATTTGAAGGTGATAGTATTACATGGGAAATCA [CACACA_negctrl_site301]	9.32
TTTAATTAATAATAATATAAATTGTTCTTTTTTTTT [GTGCAC_negctrl_site176]	8.85
CATATTTATAAATATAAACACACAACATTATATGCA [CACACA_site9065]	9.54
GCAAAATAAAGAAGCACACAAAAATGAAATATATAT [CACACA_site3651]	9.59
TATACGTAATAATATGCACACAAATAAACTTTATAA [CACACA_site9166]	9.5
ATTTATATATATCATACACACTAATATGTATATTAT [CACACA_site5816]	9.42
ACTAGTAAATTTATATGTACATATATATATATATAG [XGTACX_site2502]	9.23
TCTTGGTATATTCAATATATGATTTATATAATTCAA [CACACA_negctrl_site818]	9.16
AAAAAAAATACATACATACACACATATATATATATA [CACACA_site912]	9.43
TTATTTTTTTCAACAAGTACTAATACAAAATAAAAC [XGTACX_site6460]	9.13
TTGTATTATTAAATTATAAAACCTATAATTATGGAT [GTGCAC_negctrl_site340]	9.04
GATTAAATCGATAATACACACTAAATGTAAAACATT [CACACA_site4248]	9.42
TGATAACTAAATACATGTACAAATTAAAAAGAAAAA [XGTACX_site3080]	9.2
TAATGATTATATGACTGTACATTTGTAGGTATAATT [XGTACX_site3373]	9.18
AGCATATATTAAACATGTACATAAATATATTATATA [XGTACX_site1451]	9.25
GAATGAATGATAAATTTTTTTTTCTTTTTTTTTTTG [CACACA_negctrl_site333]	8.83
TGTTATATATATACAAACATACACATTTATAAACAA [TGCATGCA_negctrl_site235]	9.48
AAAAAAAGAAAAAAAACACACACAAATATAAATAAA [CACACA_site8309]	10
GTTCAAATTCTTATACCTTTTTATTGAGCCATAATA [CACACA_negctrl_site210]	9.25
TATTAATTTCTTTTTTCTCATCACTTTCAAAATGAA [CACACA_negctrl_site1055]	8.89
TTATGATCATTTATATGTACACATAATTTTTGTGCT [XGTACX_site5568]	9.23
